Among all 50,000 compounds or so, about 800 (1.6%) showed an effect of 50% or more. Some of the results follow.
What follows are compounds tested against Bcl-2-like protein 10 (Homo sapiens) (UniProt Q9HD36) (assay: Phenotype converters, Bcl-B/TR3 peptide binding displacement, primary biochemical FP (AID 1240;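 further: 0% = Bcl-B with tracer peptide and DMSO and 100% = tracer peptide lacking Bcl-B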)). Conditions: GST-Bcl-B / FITC-TR3 peptide fluorescence polarization; stronger effect = higher value; compound at 3.75 mg/L.
Chain of UniProt Q9HD36 (Q9HD36 whole entry, looked up): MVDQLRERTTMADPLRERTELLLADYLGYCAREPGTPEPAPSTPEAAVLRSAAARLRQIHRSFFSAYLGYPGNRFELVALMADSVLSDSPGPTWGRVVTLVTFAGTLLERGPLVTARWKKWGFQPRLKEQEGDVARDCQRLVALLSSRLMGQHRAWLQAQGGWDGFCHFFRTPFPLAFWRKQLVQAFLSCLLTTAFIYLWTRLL

Row | SMILES | displacement
1 | NC(=O)NC(Cc1ccccc1)c1ccccc1 (stereo not given) | 7.2%
2 | CCN1C(=O)/C(=C/c2ccc(C(C)(C)C)cc2)SC1=S | 6.4%
3 | CC(=O)C1=C(C)NC(=S)NC1c1cc([N+](=O)[O-])ccc1O (stereo not given) | 18.9%
4 | COc1ccc(S(=O)(=O)NNC(=O)C(=O)Nc2ccccn2)cc1 | -6.4%
5 | CCOc1ccc(C(=O)Nc2ccc3oc(-c4cccc(C)c4)nc3c2)cc1 | 24.1%
6 | COc1ccc(C)cc1C(=O)CCC(=O)O | 10.6%
7 | CC1=CC(C)(C)Nc2ccc(OC(=O)c3ccc(Cl)c([N+](=O)[O-])c3)cc21 | 8.5%
8 | COc1ccc(CC(=O)NNC(=O)c2ccco2)cc1OC | -9.6%
9 | O=C1NC(=Nc2cccc(O)c2)S/C1=C/C(Cl)=C/c1ccc([N+](=O)[O-])cc1 | 4.1%
10 | N#Cc1ccccc1NC(=O)c1ccc(-c2ccccc2)cc1 | 12.6%
11 | CCOc1cc(C2C(C(=O)OC)=C(C)NC(C)=C2C(=O)OC)ccc1O | 0.1%
12 | O=C(Nc1cccc(O)c1)/C(=C\c1cccnc1)NC(=O)c1ccccc1 | 0.4%
13 | CCCOC(=O)c1ccc(NC(=O)COc2ccc(OC)cc2)cc1 | -3.1%
14 | Cc1ccc(C2Nc3ccccc3NC3=C2C(=O)CC(c2ccc(Cl)cc2)C3)cc1 (stereo not given) | 33.9%
15 | CNC(=S)NC12CC3CC(CC(C3)C1)C2 | 15.4%
16 | CCOc1ccccc1C(=O)NCc1ccco1 | 10.5%
17 | O=C(NCc1ccco1)c1cc(-c2ccco2)nc2ccccc12 | 29.9%
18 | O=C(Nc1ccc(O)c(-c2nc3ccccc3o2)c1)c1cc2ccccc2o1 | -10.8%
19 | COc1ccc(C2NC(=O)NC3=C2C(=O)N(Cc2ccccc2)C3)cc1 (stereo not given) | -11.1%
20 | COc1ccc(/C=C(\NC(=O)c2ccccc2)C(=O)N/N=C/c2ccccn2)cc1 | -13.2%
21 | CCOC(=O)C(CCCCOc1cccc(OC)c1)C(=O)OCC | -10%
22 | O=C(CC1S/C(=N\N=C\c2cccs2)NC1=O)Nc1ccc(Cl)cc1Cl (stereo not given) | 9.6%
23 | COc1cc(C(=O)N/C(=C/c2cccc([N+](=O)[O-])c2)C(=O)Nc2ccc(C)cc2)cc(OC)c1OC | -4%
24 | COc1cccc(/C(C)=N/NC(=O)C2CC2)c1 | 0.4%

Row | SMILES | displacement
25 | COc1ccc(/C=C2\C(=O)N(Cc3ccccc3)N=C2C)cc1 | 1.4%
26 | COc1ccc(C2NC(=O)NC(C)=C2C(=O)OCc2ccccc2)cc1OC (stereo not given) | 3.1%
27 | COc1ccc(-n2nnnc2C(Cl)(Cl)c2nnnn2-c2ccc(OC)cc2)cc1 | 5.8%
28 | O=C(NC(NC(=S)Nc1ccc(Cl)cc1Cl)C(Cl)(Cl)Cl)c1ccccc1F (stereo not given) | 0.7%
29 | O=C(O)c1ccc(N=C2SCC(=O)N2Cc2ccccc2)cc1 | -10%
30 | Cc1c(C=Nc2ccc(Br)cc2)c(O)n(C)c(=O)c1C#N | 12.4%
31 | Cc1c(NC(=O)COc2ccc(Cl)cc2Cl)cccc1[N+](=O)[O-] | -6%
32 | CSC(=NSc1ccc([N+](=O)[O-])cc1)SC | -10.4%
33 | COc1cc(CN2CCN(S(C)(=O)=O)CC2)cc(OC)c1OC | 0%
34 | Cc1ccccc1NC(=O)C(=O)NCc1cccnc1 | 10.2%
35 | COC(=O)CN1C(=O)/C(=C\c2cccc([N+](=O)[O-])c2)SC1=S | 5.7%
36 | Cc1ccc(S(=O)(=O)CCc2nc3ccccc3o2)cc1 | -7.8%
37 | O=C(c1cc(-c2cccs2)nc2ccccc12)N1CCN(c2ccccc2)CC1 | 2.2%
38 | Brc1ccc2ncnc(Nc3ccccc3)c2c1 | -5.8%
39 | O=C1N=c2ccccc2=C1c1cc(-c2ccccc2)oc1O | 1%
40 | CCc1cc(C)cc(OCCOc2ccc([N+](=O)[O-])cc2/C=C2/SC(=S)N(C)C2=O)c1 | 20.5%
41 | Cc1cc(NNC(=O)c2ccccc2O)c2cccc(C)c2n1 | 1.8%
42 | O=C(c1ccc(F)cc1)N1CCN(c2ccc(F)cc2)CC1 | 6.5%
43 | CN(C)/C=N/S(=O)(=O)c1ccccc1 | 5.6%
44 | COc1ccc(CCNC(=O)C(=O)N2CCCC2)cc1 | -1.5%
45 | O=C(Nc1ccc(Cc2ccncc2)cc1)c1cccs1 | -2.9%
46 | Cn1c2c(c(=O)n(C)c1=O)C(c1ccc(OC(=O)/C=C/c3ccc([N+](=O)[O-])cc3)cc1)C1=C(N2)c2ccccc2C1=O (stereo not given) | 13.4%
47 | CCN(CC)c1ccc(NC(=O)/C=C\C(=O)O)cc1 | 18.6%
48 | CC(=O)/C=C/c1cccc[n+]1C | -4.4%

Row | SMILES | displacement
49 | O=C(Nc1ccc(Cl)c(Cl)c1)c1cc(Br)ccc1Cl | 13.8%
50 | C/C=C/C=C(/NC(=O)c1ccccc1)C(=O)Nc1cccc(C)c1 | -2.3%
51 | CCCOc1ccc(/C=C2/C(=O)NN(c3ccccc3)C2=O)cc1OC | 13%
52 | O=C(Nc1ccc2nn(-c3ccc(F)cc3)nc2c1)c1ccc(Cl)c([N+](=O)[O-])c1 | 7.7%
53 | COC(=O)c1ccc(N2C(=O)CC(N3CCC(O)CC3)C2=O)cc1 (stereo not given) | -6%
54 | O=C(Nc1ccc2nc(SCc3ccccc3)sc2c1)c1ccccc1C(=O)N1CCOCC1 | -3.4%
55 | CCOC(=O)c1c(NC(=O)Cc2ccccc2)sc2c1CCCCC2 | 5.1%
56 | Cc1ccc(NC(=O)c2ccco2)cc1NC(=O)c1ccccc1 | 10.8%
57 | COC(=O)c1ccc(Cl)c(S(=O)(=O)N2CCOCC2)c1 | -6.1%
58 | Cc1cc(Br)ccc1NC(=O)c1ccco1 | 15.8%
59 | COc1ccc(N2C(=O)NC(=O)/C(=C\c3cc(C)n(-c4ccc(N5CCOCC5)cc4)c3C)C2=O)cc1 | 15.9%
60 | COc1ccc(C=C2C(=O)c3ccccc3C2=O)c(O)c1 | 18.4%
61 | COc1ccc(CCNC(=O)COc2ccc(C)cc2C)cc1 | 1%
62 | COc1cc(/C=C2/SC(=S)N(c3ccccc3)C2=O)ccc1OC(=O)c1ccc(Cl)cc1 | 11.8%
63 | CC(=O)Nc1ccc(NS(=O)(=O)c2ccc(NC(C)=O)cc2)cc1 | -5.4%
64 | COc1ccc(/C=C/C(=O)Nc2ccc(N3CCCCC3)c(Cl)c2)cc1 | -3.8%
65 | O=C1C2C3C=CC(C3=C3CCCC3)C2C(=O)N1Cc1ccccc1 (stereo not given) | -11.8%
66 | CN1C(=O)/C(=C\C2(C)N3CC4(C)CN2CC(C)(C3)C4=O)c2ccccc21 (stereo not given) | -6.5%
67 | O=C(O)CCCCCN1C(=O)C(=O)/C(=C(/O)c2ccc(F)cc2)C1c1ccc(O)cc1 (stereo not given) | -7.8%
68 | CC(=O)Nc1ccc(NC(=O)CN(c2ccc(C)cc2)S(C)(=O)=O)cc1 | 2.5%
69 | O=C(NCCc1ccc(F)cc1)C(=O)NC1CCCCC1 | 5%
70 | O=C(CSc1nc(O)cc(=O)[nH]1)N1c2ccccc2CCc2ccccc21 | 12.1%
